# Measured values as given in PubChem BioAssay AID686970 (National Center for Advancing Translational Sciences (NCATS), 2013).
# In all, about 360,000 compounds went through this assay and about 6,000 (1.7%) were called active. The shares of active, inactive and inconclusive entries below differ from those in the screen. The call rests on the fitted dose curve; in most records, active means well fitted cell-killing curve with a large enough effect; inconclusive means small, poorly fitted or top-dose-only effect, or effect the other way; inactive means flat fitted curve, though single readings scatter. No potency is given beside an inconclusive call; the fits are too rough.
# Assay: qHTS for induction of synthetic lethality in tumor cells producing 2HG: qHTS for the HT-1080-NT fibrosarcoma cell line;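 further: NT is the 2HG producing partner of a matched IDH1 knockdown line; nearly all actives have a fitted effect of over 55% in size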;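 on activity, negative = less viability: 0% = DMSO-treated cells and -100% = media-only wells without cells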
# Conditions: HT-1080-NT fibrosarcoma viability, CellTiter-Glo ATP luminescence, 48 h; activity, negative = less viability: at 46.1 µM (top of the series) unless noted
# Method in brief: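 Toxicity toward the 2HG-producing NT line was scored as %Activity, normalised to DMSO and no-cell wells, from CellTiter-Glo luminescence after 48 hours' treatment.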
# Potency means the concentration at half of the fitted maximal effect; tags describe the fitted curve by direction and shape.
Structure (SMILES),Potency,"activity, negative = less viability"
O=C(CSc1nnnn1-c1ccc2c(c1)OCCO2)Nc1nc2c(s1)CCCC2,"inconclusive [cytotoxic, single point]",–
O=C1N/C(=C\c2ccc(O)cc2)C(=O)c2ccccc21,"inconclusive [cytotoxic, single point]",–
O=C(CC1NCCc2ccccc21)Nc1ccc(Oc2ccccc2)cc1 (stereo not drawn),"inconclusive [cytotoxic, single point]",–
CCOc1ccc2nc(/N=C/c3c(C)[nH]n(-c4ccc(C)cc4)c3=O)sc2c1,"inconclusive [cytotoxic, partial curve]",–
COc1ccccc1N1CCN(Cc2nc(N)nc(Nc3ccc(C)c(Cl)c3)n2)CC1,"inconclusive [cytotoxic, single point]",–
O=C(CNC(=O)c1cccc(F)c1)N/N=C/c1ccc([N+](=O)[O-])s1,–,inactive: -29.1%
COC(=O)c1ccc(-c2ccc([C@H]3[C@H]4C=CC[C@@H](C)[C@@H]4C(=O)N3Cc3ccccc3)c(F)c2)cc1,"inconclusive [cytotoxic, single point]",–
CCC(=O)Nc1ccc(S(=O)(=O)NC[C@H]2O[C@@H](n3cc(C)c(=O)[nH]c3=O)C[C@@H]2O)cc1,–,inactive: 6.2%
Cn1c(=O)[nH]c(=O)c2c1nc(Br)n2C/C=N/NC(=O)c1ccccc1,–,inactive: 9.77%
COc1cc(NC(=O)c2cc([N+](=O)[O-])ccc2N2CCOCC2)ccc1NC(=O)c1ccco1,–,inactive: -4.66%
CCCC1=Nc2cc(C(=O)NCCN3CCOCC3)ccc2Sc2ccccc21,"inconclusive [cytotoxic, single point]",–
C(=N\N(c1ccccc1)c1ccccc1)/c1ccccn1,–,inactive: -0.0691%
OC(c1ccc(F)c(F)c1)c1nc(-c2cnc3ccccc3c2)cs1 (stereo not drawn),"inconclusive [cytotoxic, single point]",–
Cc1ccc(CCNC(=O)C2CCCN(C(=O)N(C)C)C2)cc1 (stereo not drawn),–,inactive: 7.17%
COc1cc2ccccc2cc1C(=O)N(CCN(C)C)c1nc2c(OC)ccc(OC)c2s1,active: 16.4 µM,–
CC1(C(=O)NCc2cccc3ccccc23)CCN1C(=O)Cc1ccc(-c2ccccc2)cc1 (stereo not drawn),active: 18.4 µM,–
Cc1cc(O)ccc1-c1cc(C(=O)NCc2ccc(F)cc2)[nH]n1,"inconclusive [cytotoxic, single point]",–
COc1cc(-c2nc(-c3ccc(NC(=O)c4ccc5c(c4)OCO5)cc3)no2)cc(OC)c1OC,active: 4.61 µM,–
O=S(=O)(c1ccc(F)cc1)N1CCC2(CC1)OCCO2,–,inactive: 10.8%
Cc1cc(N=Nc2ccc3ccccc3c2)ccc1O,"inconclusive [cytotoxic, single point]",–
O=C(/C=C/c1ccc(S(=O)(=O)N2CCOCC2)cc1)Nc1cc(F)ccc1F,–,inconclusive: -1.51% [cytotoxic]
Cc1[nH]c2ccccc2c1NC(=O)CN1CCN(c2cccc(C(F)(F)F)c2)CC1,active: 18.4 µM,–
COc1ccc(NS(=O)(=O)NC(=O)c2cn(C)c3ccccc23)cc1,–,inconclusive: -1.35% [cytotoxic]
CSc1nc(SCCO)c2sc3nc(-c4ccco4)c4c(c3c2n1)CC(C)(C)OC4,"inconclusive [cytotoxic, partial curve]",–
Cc1ccc(C)c(OCC(=O)Nc2ccc(C(=O)O)cc2NC(=O)COc2cc(C)ccc2C)c1,"inconclusive [cytotoxic, partial curve]",–

Structure (SMILES),Potency,"activity, negative = less viability"
COc1ccc(NC(=O)c2cc(-c3ccc(C)o3)nc3ccccc23)c(OC)c1,–,inactive: -26%
O=C(O)c1cc(-c2ccc(-c3ccc(F)cc3)o2)nc2ccccc12,–,inactive: -14.3%
Cc1ccc(S/C=C\C(=O)c2ccccc2)cc1,active: 22.4 µM,–
CC1CCN(c2ccc(S(=O)(=O)NC3=NCCCCC3)cc2[N+](=O)[O-])CC1,"inconclusive [cytotoxic, single point]",–
Cc1ccnc(NC(=O)CCCOc2ccccc2)c1,"inconclusive [rising, partial curve]",–
CCC1(C)Cc2c(sc3c2c2ncnn2c2nnc(SCC(=O)NCc4ccco4)n32)CO1 (stereo not drawn),"inconclusive [cytotoxic, single point]",–
CCOC(=O)C1=C(C)N(C)C(C)=C(C(=O)OCC)C1c1ccc(C(=O)OC)cc1,–,inactive: -4.45%
COc1ccc(CC(N)c2csc(Nc3ccc(C(C)=O)cc3)n2)cc1 (stereo not drawn),"inconclusive [cytotoxic, single point]",–
CCN1CCN(c2ccc(NC(=O)c3ccc(Cl)c(S(=O)(=O)N4CCCC4)c3)cc2)CC1,"inconclusive [cytotoxic, single point]",–
Cc1cc(Br)cn2c(Cc3ccsc3)c(-c3ccco3)nc12,active: 16.4 µM,–
Cc1ccc(S(=O)(=O)N2CCCN(S(=O)(=O)c3ccc(C(F)(F)F)cc3)CC2)cc1,–,inactive: 1.62%
O=C(Nc1ccc(N2CCOCC2)cc1)c1ccc2c(c1)OCO2,"inconclusive [cytotoxic, partial curve]",–
O=C(Nc1nnc(-c2ccncc2)o1)c1ccc(Br)s1,–,inactive: -18.1%
O=C(NCc1cccs1)c1csc(COCCO)n1,"inconclusive [rising, single point]",–
Cc1cccc2nc(-c3ccccc3)nc(N[C@@H](CO)c3ccccc3)c12,"inconclusive [cytotoxic, single point]",–
Cc1ccc(OCCCCNC2CCCCC2)c(C)c1,"inconclusive [cytotoxic, single point]",–
O=C(CSc1nc(-c2ccccc2)nc2ccccc12)Nc1nccs1,"inconclusive [cytotoxic, single point]",–
COc1ccc(Br)cc1CNC(=O)CCc1nc(-c2ccc(C)cc2)no1,–,inactive: -16.1%
CC(=O)C1=C(S(=O)(=O)c2ccc(C)cc2)CS(=O)(=O)C1,"inconclusive [cytotoxic, single point]",–
c1ccc(CN2CCN(CCOCCOc3cccc4ccccc34)CC2)cc1,active: 16.4 µM,–
CCC1CCc2c(sc(NC(=O)c3cccnc3)c2C(N)=O)C1 (stereo not drawn),"inconclusive [rising, partial curve, poor fit]",–
CCCCOC(=O)Nc1nnc(CC(=O)NCc2ccccc2)s1,active: 4.11 µM,–
CCCc1cc(C(=O)N2CCCC(Cc3cccc(Cl)c3)(C(=O)OCC)C2)n(C)n1 (stereo not drawn),"inconclusive [cytotoxic, single point]",–
Cc1ccc(OCC(=O)NCCNC(=O)c2cnccn2)cc1C,–,inactive: 11.3%
Cc1ccc(-c2cc(C(=O)N/N=C/c3ccccc3O)n[nH]2)o1,"inconclusive [cytotoxic, single point]",–

Structure (SMILES),Potency,"activity, negative = less viability"
C/C=C/c1cc(CN2CCN(c3ccccc3)CC2)c(O)c(OC)c1,"inconclusive [cytotoxic, single point]",–
Cc1ccc2c(c1)C(c1ccccc1)N(C(=O)c1ccccc1[N+](=O)[O-])CC(=O)N2 (stereo not drawn),–,inactive: 2.11%
Cc1ccc(Nc2cc(C)nc(-c3ccccc3)n2)cc1,–,inactive: -7.81%
COc1ccc(NC(=O)C2Cc3c(-c4cccc(F)c4)ccnc3O2)cn1 (stereo not drawn),–,inactive: -11.4%
COc1cccc(/C=N/Nc2ccc([N+](=O)[O-])cn2)c1O,active: 0.651 µM,–
CC(C)C1C(=O)N(Cc2cn(CC3CCCCC3)nn2)CCS(=O)(=O)N1Cc1ccc(-c2cccc(CO)c2)cc1 (stereo not drawn),"inconclusive [cytotoxic, single point]",–
CCOC(=O)C1=C(CN2CCc3ccccc32)NC(=O)NC1c1ccc(Cl)cc1 (stereo not drawn),"inconclusive [cytotoxic, single point]",–
Cc1ccc(/C=C2/Sc3ccccc3N(CC(=O)NCC3CCCO3)C2=O)cc1 (stereo not drawn),"inconclusive [rising, partial curve]",–
C/C(=N\NC(=O)COc1ccc(C#N)cc1)c1ccccc1OC(F)F,–,inactive: -23.1%
NS(=O)(=O)c1ccc(N/N=C/c2ccccc2Br)cc1,"inconclusive [cytotoxic, single point]",–
O=C(N/C=N/OCc1ccc(Cl)cc1Cl)NOCc1ncc(C(F)(F)F)cc1Cl,"inconclusive [cytotoxic, single point]",–
COc1ccc(-c2cnc3c(NC(C)=O)cc(-c4cccc(C(=O)N(C)C)c4)cn23)cc1OC,–,inactive: -21.3%
COc1ccc(OC)c(/C=N/Nc2nc(C)cc(=O)[nH]2)c1,"inconclusive [rising, partial curve]",–
CCN1C=C(Cc2cccs2)C2=C(C1)C(c1cccs1)C(C#N)=C(N)O2 (stereo not drawn),"inconclusive [cytotoxic, partial curve]",–
Fc1ccccc1CNCCC(Cc1ccccc1)c1ccc2c(c1)OCO2 (stereo not drawn),active: 16.4 µM,–
C=CCSc1nccc(-c2nn(-c3ccc(C)cc3)ccc2=O)n1,"inconclusive [cytotoxic, single point]",–
O=C(OCCN1C(=O)c2cccc3c(N4CCOCC4)ccc(c23)C1=O)c1cccc(Cl)c1,active: 14.6 µM,–
O=c1[nH]c(SCc2nc3ccccc3n2Cc2ccccc2)nc2ccccc12,–,inactive: -11.7%
Cc1[nH]c2ccccc2c1-c1csc(NC(=O)CSCC(=O)O)n1,"inconclusive [rising, partial curve]",–
CCCC(=O)c1ccc(N2CCN(C(=O)c3ccccc3)CC2)c(F)c1,–,inactive: -1.3%
CCOC(=O)N1CCN(c2nc3ccccc3n3cnnc23)CC1,–,inactive: 5.69%
Cc1ccc(Cn2nnc3c(=O)[nH]c(C4CCN(C(=O)Cc5cccs5)CC4)nc32)cc1,–,inactive: -28.3%
CCc1ccc(-c2cc3c(=O)n(CC(=O)NCCCN4CCN(CC)CC4)nc(C)n3n2)cc1,"inconclusive [cytotoxic, single point]",–
